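Compound exposure: 48 hours, 5 concentrations, 96-well plates. GI50: concentration for 50% inhibition of growth. TGI: total growth inhibition.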
test system: NCI-H322M lung; experiment: growth of human tumour cells (NCI), 48 h

Row | SMILES | GI50 [µM] | TGI [µM]
1 | Oc1ccc(CSc2nnc(-c3ccccc3)o2)c2cccnc12 | 1.77 | > 100
2 | C#C[C@]1(O)CC[C@H]2[C@@H]3CC=C4c5sc(-c6ccc(F)cn6)nc5CC[C@]4(C)[C@H]3CC[C@@]21C | 4.22 | 16.5
3 | Oc1ccccc1-c1nnc(SCc2ccc(O)c3ncccc23)n1-c1ccccc1 | 0.482 | > 100
4 | O=C(Nc1cc(C(F)(F)F)cc(C(F)(F)F)c1)Nc1ccc2oc(=O)ccc2c1 | 2.69 | > 100

— PubChem BioAssay (NCI)
